# Measured values from PubChem BioAssay (NCI).
#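 The compound was tested at five concentrations on cells cultured in 96-well plates, with a 48-hour exposure period. GI50: concentration for 50% inhibition of growth.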 Certain results were filed several times, with different values. Only these are listed. There may be further records. For some assays here: The tests behind the records often covered other concentration ranges, which the source does not state; a value can be the end of its range. For some assays here: Results that share an entry are repeated measurements in other runs, samples, wells, individuals or studies. What stands in brackets tells the records apart. Letters hold for one entry only.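 At the TGI there is no net growth.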 Square brackets hold non-standard residues; d marks the D form. Peptide text beside a SMILES is read from it. Orn = NCCC[CH](N)C(=O)O
# Legend:
# Assay in all cases: NCI tumour cell line growth inhibition, 48 h
# IGROV1 ovarian = test system: IGROV1 ovarian
# DLD-1 colon = test system: DLD-1 colon
# P388 leukemia = test system: P388 leukemia
# OVCAR-4 ovarian = test system: OVCAR-4 ovarian
# SNB-75 CNS = test system: SNB-75 CNS
# RXF 393 renal = test system: RXF 393 renal
# SK-OV-3 ovarian = test system: SK-OV-3 ovarian
# SK-MEL-5 melanoma = test system: SK-MEL-5 melanoma
# HCC-2998 colon = test system: HCC-2998 colon
# NCI-H460 lung = test system: NCI-H460 lung
# SNB-19 CNS = test system: SNB-19 CNS
# KM20L2 colon = test system: KM20L2 colon
# CAKI-1 renal = test system: CAKI-1 renal
# COLO 205 colon = test system: COLO 205 colon
# HCT-15 colon = test system: HCT-15 colon
# K-562 leukemia = test system: K-562 leukemia
# HOP-62 NSCLC = test system: HOP-62 NSCLC
# OVCAR-3 ovarian = test system: OVCAR-3 ovarian
# KM12 colon = test system: KM12 colon
# OVCAR-5 ovarian = test system: OVCAR-5 ovarian
# M19-MEL melanoma = test system: M19-MEL melanoma
# UACC-257 melanoma = test system: UACC-257 melanoma
# NCI-H23 lung = test system: NCI-H23 lung
# P388/ADR leukemia = test system: P388/ADR leukemia
# SN12C renal = test system: SN12C renal
# XF 498 CNS = test system: XF 498 CNS
# U251 CNS = test system: U251 CNS
# SW-620 colon = test system: SW-620 colon
# SK-MEL-2 melanoma = test system: SK-MEL-2 melanoma
# DMS 273 small cell lung = test system: DMS 273 small cell lung
# SF-268 CNS = test system: SF-268 CNS
# LOX IMVI melanoma = test system: LOX IMVI melanoma
# NCI-H226 lung = test system: NCI-H226 lung
# OVCAR-8 ovarian = test system: OVCAR-8 ovarian
# EKVX NSCLC = test system: EKVX NSCLC
# UACC-62 melanoma = test system: UACC-62 melanoma
# SF-295 CNS = test system: SF-295 CNS
# MALME-3M melanoma = test system: MALME-3M melanoma
# SK-MEL-28 melanoma = test system: SK-MEL-28 melanoma
# SF-539 CNS = test system: SF-539 CNS
# NCI/ADR-RES ovarian = test system: NCI/ADR-RES ovarian
# SNB-78 CNS = test system: SNB-78 CNS
# CCRF-CEM leukemia = test system: CCRF-CEM leukemia
# HL-60(TB) leukemia = test system: HL-60(TB) leukemia
# UO-31 renal = test system: UO-31 renal
# HCT-116 colon = test system: HCT-116 colon
# A549 NSCLC = test system: A549 NSCLC
# DMS 114 small cell lung = test system: DMS 114 small cell lung
# RPMI-8226 leukemia = test system: RPMI-8226 leukemia
# MOLT-4 leukemia = test system: MOLT-4 leukemia
# HT29 colon = test system: HT29 colon
# NCI-H522 lung = test system: NCI-H522 lung
# HOP-92 NSCLC = test system: HOP-92 NSCLC
# DU-145 prostate = test system: DU-145 prostate
# A498 renal = test system: A498 renal
smiles,measurement,setting,value
COC(=O)C12OCC34C(CC5C(C)=CC(=O)C(O)C5(C)C3C(O)C1O)OC(=O)C(OC(=O)CC(C)C)C24 (configuration not stated),TGI,IGROV1 ovarian,"5.59 nM, 61.7 nM, 69.4 nM"
same,TGI,DLD-1 colon,"13.4 nM, 141 nM, 88.9 nM"
same,TGI,P388 leukemia,3.83 nM and 290 nM
same,GI50,OVCAR-4 ovarian,"69.3 nM, 50 nM [mean of 3 tests] and 3.06 nM [mean of 6 tests]"
same,TGI,OVCAR-4 ovarian,"377 nM, 118 nM [mean of 3 tests] and 20.6 nM [mean of 6 tests]"
same,TGI,SNB-75 CNS,"9.98 nM, 163 nM, 81.2 nM"
same,TGI,RXF 393 renal,"9.05 nM, 210 nM, 54.5 nM"
same,TGI,SK-OV-3 ovarian,"27.4 nM, 2.06 µM, 79.5 nM"
same,TGI,SK-MEL-5 melanoma,2.91 nM and 213 nM
same,TGI,HCC-2998 colon,4 nM and 70.9 nM
same,TGI,NCI-H460 lung,2.06 nM and 162 nM
same,TGI,SNB-19 CNS,7.65 nM and 2.6 µM
same,TGI,KM20L2 colon,"31.4 nM, 6.61 µM, 500 nM"
same,TGI,CAKI-1 renal,"90.8 nM, 1.1 µM, 208 nM"
same,TGI,COLO 205 colon,"12.4 nM, 1.12 µM, 55.6 nM"
same,TGI,HCT-15 colon,"27.9 nM, 425 nM, 616 nM"
same,GI50,K-562 leukemia,0.617 nM and 50 nM
same,TGI,K-562 leukemia,39.6 nM and 503 nM
same,TGI,HOP-62 NSCLC,"< 16.3 nM, 246 nM, 79.3 nM"
same,TGI,OVCAR-3 ovarian,4.93 nM and 159 nM
same,TGI,KM12 colon,"13.5 nM, 494 nM, 65.4 nM"
same,TGI,OVCAR-5 ovarian,"11.6 nM, 541 nM, 828 nM"
same,TGI,M19-MEL melanoma,8.47 nM and 106 nM
same,TGI,UACC-257 melanoma,"13.2 nM, 343 nM, 62.7 nM"
same,TGI,NCI-H23 lung,"3.89 nM, 111 nM, 283 nM"
same,TGI,P388/ADR leukemia,79.7 nM and 994 nM
same,TGI,SN12C renal,"58.5 nM, 3.19 µM, 375 nM"
same,TGI,XF 498 CNS,"4.18 nM, 94 nM, 73.9 nM"
same,TGI,U251 CNS,7.27 nM and 686 nM
same,TGI,SW-620 colon,"99.4 nM, 341 nM, 1.99 µM"
same,TGI,SK-MEL-2 melanoma,"15.2 nM, 192 nM, 387 nM"
same,TGI,DMS 273 small cell lung,1.76 nM and 19.5 nM
same,TGI,SF-268 CNS,"15.8 nM, 226 nM, 71.8 nM"
same,TGI,LOX IMVI melanoma,"3.09 nM, 213 nM, 500 nM"
same,TGI,NCI-H226 lung,5.08 nM and 141 nM
same,TGI,OVCAR-8 ovarian,"19.7 nM, 245 nM, 63.1 nM"
same,TGI,EKVX NSCLC,30.6 nM and 1.22 µM
same,TGI,UACC-62 melanoma,"12 nM, 194 nM, 61.6 nM"
same,TGI,SF-295 CNS,8.58 nM and 346 nM
same,TGI,MALME-3M melanoma,6.03 nM and 64.8 nM
same,TGI,SK-MEL-28 melanoma,"8.52 nM, 135 nM, 53.7 nM"
same,TGI,SF-539 CNS,2.28 nM and 52.2 nM
same,TGI,NCI/ADR-RES ovarian,24.7 nM and 14.6 µM
same,TGI,SNB-78 CNS,"39.2 nM, 1.24 µM, 90.1 nM"
same,TGI,CCRF-CEM leukemia,"6.68 nM, 140 nM, 316 nM"
same,TGI,HL-60(TB) leukemia,"0.738 nM, 94.8 nM, 500 nM"
same,TGI,UO-31 renal,"46.7 nM, 2.44 µM, 219 nM"
same,GI50,HCT-116 colon,50 nM [mean of 3 tests] and < 32 nM [mean of 4 tests] and 0.822 nM [mean of 7 tests]
same,TGI,HCT-116 colon,233 nM [mean of 3 tests] and 125 nM [mean of 4 tests] and 7.52 nM [mean of 7 tests]
same,TGI,A549 NSCLC,"24.3 nM, 437 nM, 102 nM"
same,TGI,DMS 114 small cell lung,9.76 nM and 572 nM
same,TGI,RPMI-8226 leukemia,1.6 nM and 51.1 nM
same,GI50,MOLT-4 leukemia,< 32.1 nM [mean of 3 tests] and 50 nM [mean of 5 tests] and 0.211 nM [mean of 6 tests]
same,TGI,MOLT-4 leukemia,132 nM [mean of 3 tests] and 811 nM [mean of 5 tests] and 3.24 nM [mean of 6 tests]
same,TGI,HT29 colon,"7.13 nM, 504 nM, 256 nM"
COc1cc([C@@H]2c3cc4c(cc3[C@H](O)[C@H]3COC(=O)[C@@H]23)OCO4)cc(OC)c1OC,TGI,RXF 393 renal,"> 100 µM [sample A, 1 test] and 827 nM [sample B, 1 test]"
same,TGI,SK-OV-3 ovarian,"> 100 µM [sample A, mean of 2 tests] and 8.73 µM [sample B, 1 test]"
same,TGI,NCI-H522 lung,"> 100 µM [sample A, mean of 2 tests] and 1.48 µM [sample B, mean of 2 tests]"
same,GI50,HOP-92 NSCLC,"> 36.8 µM [sample A, mean of 2 tests] and 490 nM [sample B, mean of 2 tests]"
same,TGI,DU-145 prostate,"672 nM [sample A, mean of 2 tests] and > 10 µM [sample B, mean of 2 tests]"
same,TGI,A498 renal,"> 100 µM [sample A, mean of 2 tests] and 818 nM [sample B, mean of 2 tests]"
CC(C)CC1NC(=O)C(CCCN)NC(=O)C(C(C)C)NC(=O)C2CCCN2C(=O)C(Cc2ccccc2)NC(=O)C(CC(C)C)NC(=O)C(CCCN)NC(=O)C(C(C)C)NC(=O)C2CCCN2C(=O)C(Cc2ccccc2)NC1=O (configuration not stated) (cyclo(FPV[Orn]LFPV[Orn]L); configuration not given here),TGI,OVCAR-4 ovarian,56.7 nM [1 test] and 1.19 µM [mean of 2 tests]
